# Measurements taken from PMC4336329 (PLoS ONE, 2015).
# Out of some 310,000 compounds screened, about 2,200 (0.71%) showed an effect of 50% or more. The effect is printed as a negative number. The list shows a part of the results.
# Target: human ether-à-go-go-related gene (hERG) potassium channel (human, UniProt Q12809)
# Assay: primary screen, population patch clamp on CHO cells stably expressing hERG
# Chain of human ether-à-go-go-related gene (hERG) potassium channel (Q12809 whole entry, looked up): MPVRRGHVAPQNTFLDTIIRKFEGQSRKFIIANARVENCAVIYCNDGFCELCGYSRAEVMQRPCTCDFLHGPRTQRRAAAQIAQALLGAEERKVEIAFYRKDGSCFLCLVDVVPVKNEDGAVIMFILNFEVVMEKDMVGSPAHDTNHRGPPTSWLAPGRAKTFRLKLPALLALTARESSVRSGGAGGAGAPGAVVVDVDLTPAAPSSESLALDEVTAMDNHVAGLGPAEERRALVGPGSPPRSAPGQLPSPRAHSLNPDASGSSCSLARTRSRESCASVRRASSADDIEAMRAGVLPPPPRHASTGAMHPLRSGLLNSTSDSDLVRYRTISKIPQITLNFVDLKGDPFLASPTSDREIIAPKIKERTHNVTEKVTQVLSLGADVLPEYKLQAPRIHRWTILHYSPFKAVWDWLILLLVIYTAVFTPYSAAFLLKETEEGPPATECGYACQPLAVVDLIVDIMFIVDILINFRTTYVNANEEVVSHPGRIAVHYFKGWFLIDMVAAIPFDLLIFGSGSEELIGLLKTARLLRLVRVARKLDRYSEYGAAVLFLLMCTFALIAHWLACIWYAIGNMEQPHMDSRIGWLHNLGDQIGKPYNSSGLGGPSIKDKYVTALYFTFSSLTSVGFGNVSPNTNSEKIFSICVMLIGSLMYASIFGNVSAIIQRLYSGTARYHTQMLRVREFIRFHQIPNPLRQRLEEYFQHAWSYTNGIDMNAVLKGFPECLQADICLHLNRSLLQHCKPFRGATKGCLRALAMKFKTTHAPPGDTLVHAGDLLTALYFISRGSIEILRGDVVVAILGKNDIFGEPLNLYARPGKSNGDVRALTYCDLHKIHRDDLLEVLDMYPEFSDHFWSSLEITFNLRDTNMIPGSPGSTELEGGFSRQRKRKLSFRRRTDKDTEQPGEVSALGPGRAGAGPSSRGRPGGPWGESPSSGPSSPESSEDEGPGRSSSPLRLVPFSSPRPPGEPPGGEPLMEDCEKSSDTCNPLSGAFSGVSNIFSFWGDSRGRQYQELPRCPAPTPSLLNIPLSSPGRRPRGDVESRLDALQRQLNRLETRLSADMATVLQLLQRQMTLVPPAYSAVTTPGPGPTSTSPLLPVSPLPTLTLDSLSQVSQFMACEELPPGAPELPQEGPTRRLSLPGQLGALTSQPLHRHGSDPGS
row,SMILES,"hERG current change (%, negative = inhibition) at 1uM"
1,COCCn1c(=N)c(C(=O)NCCc2ccc(OC)cc2)cc2c(=O)n3cccc(C)c3nc21,-95.4%
2,Cc1cc(C)cc(OCc2nnc(SCC(=O)OC(C)C)o2)c1,14.5%
3,O=C(NCc1ccccc1Cl)NC(=O)c1ccccc1,9.35%
4,COC(=O)Nc1nnc(Cc2ccccc2)s1,5.95%
5,Cc1cccc(NS(=O)(=O)Cc2ccccc2)c1C,29.7%
6,C[N+](C)(C)CCCC(=O)c1ccc2c(c1)OCO2.[Cl-],12.2%
7,CCOC(=O)C1=C(c2ccccc2)ON(C)C1c1ccccc1 (stereo not shown),3.7%
8,N=c1c2c(-c3ccccc3)c(-c3ccccc3)n(Cc3ccccc3)c2ncn1CCCn1ccnc1,-32%
9,CC(=O)N1CCN(c2ccc(NCc3cccc(C)c3)cc2)CC1,15.7%
10,CSCCC(NC(=O)c1cccc(C)c1)C(=O)Nc1sccc1C(N)=O (stereo not shown),16.1%
11,CCn1c(=O)cc(SCC(=O)N2CCN(Cc3ccc4c(c3)OCO4)CC2)c2ccccc21,10.1%
12,CCCc1cc(C(F)(F)F)c(C#N)c(=O)[nH]1,9.03%
13,Cc1ccc(N/C(SCc2ccccc2C)=C(/C#N)C(=O)NCc2ccco2)cc1C,10%
14,Cc1nc(CCNC(=O)COc2ccccc2)cs1,17%
15,CCOc1ccc(-c2noc(CCCC(=O)NCC3CCCO3)n2)cc1OC (stereo not shown),9.51%
16,COc1cccc(NC(C)(C)c2nnnn2-c2c(C)cccc2C)c1,-16.4%
17,O=C(CSc1nccc(-c2cccs2)n1)Nc1cccc(Cl)c1,8.96%
18,C#CCn1c(=NC(=O)c2cc(-c3cccs3)nc3ccccc23)sc2cc(S(N)(=O)=O)ccc21,10.9%
19,CCCn1c(C)cc(C(=O)COC(=O)c2cc(S(=O)(=O)NCC(C)C)c(Cl)cc2Cl)c1C,3.71%
20,CCCCN(C(=O)CSc1nnc(-c2ccc(Cl)cc2)o1)c1c(N)n(CC(C)C)c(=O)[nH]c1=O,5.4%
21,CCOC(=O)Cc1csc(NC(=O)Nc2ccccc2)n1,8.05%
22,CC(C(=O)OCC(=O)c1c(N)n(C)c(=O)n(C)c1=O)N1C(=O)c2ccccc2C1=O (stereo not shown),2.68%
23,CCOC(=O)C1CCCCN1Cc1cc(Cl)ccc1O (stereo not shown),4.99%

row,SMILES,"hERG current change (%, negative = inhibition) at 1uM"
1,CCOC(=O)c1cc(-c2ccccc2)nn1-c1ccccn1,-6.29%
2,CCc1nc(SCC(=O)O)c(C#N)cc1C,10.7%
3,N#Cc1c(N)n(CCNC(=O)c2ccc(Cl)cc2)c2nc3ccccc3nc12,15.6%
4,O=C1CC2CS(=O)(=O)CC2N1c1ccc(Cl)cc1Cl (stereo not shown),7.74%
5,Oc1ccc(-c2csc(Nc3ccccn3)n2)cc1,14.1%
6,O=c1cc(-c2ccccc2)nc(SCc2ccc(F)cc2)[nH]1,6.34%
7,Nc1nc(COc2ccc(F)cc2Cl)nc(N2CCCCC2)n1,10.5%
8,COc1cccc(-c2csc(N3CCN(C(=S)Nc4ccc(Cl)cc4)CC3)n2)c1,10.6%
9,Cc1ccccc1NC(=O)CSc1nnnn1C,6.2%
10,CC(=O)c1cccc(OCc2cc(C(=O)N3CC4C[C@@H]5CC3C[C@H](C4)C5)no2)c1,10.7%
11,CN(C)c1oc(/C=C/c2cccs2)nc1S(=O)(=O)c1ccccc1,12.7%
12,Cc1ccc(CSCCC(=O)NCCc2ccc(Cl)cc2)cc1,-0.998%
13,Cc1cc(C)cc(N(C(=O)c2csnn2)C(C(=O)NC2CCCCC2)c2cccnc2)c1 (stereo not shown),12.8%
14,CCNC(=S)NCc1ccc(OC)c(OC)c1,10.5%
15,FC(F)(F)c1cc(-c2ccco2)nc(N2CCN(c3ccccc3)CC2)n1,8.68%
16,CSC1=C(C#N)C(c2ccc(C)s2)CC(=O)N1 (stereo not shown),2.6%
17,COc1ccc(CC(=O)Nc2ccc(NC(=O)c3ccc(Br)cc3)cc2)cc1OC,14.3%
18,O=C(c1cc(=O)c2ccccc2o1)N(Cc1ccccc1)C1CCS(=O)(=O)C1 (stereo not shown),6.66%
19,CCn1c(SCc2ccc([N+](=O)[O-])cc2)nnc1C(C)NC(=O)c1ccc(C)cc1 (stereo not shown),0.444%
20,O=C(CN1N=C(c2ccccc2)CCC1=O)NCCCN1CCc2ccccc2C1,-7.4%
21,CC(C)S(=O)(=O)c1csc(C(=O)NN)c1Cl,3.32%
22,COc1ccc(C)cc1NC(=O)C(=O)NNC(=O)COc1ccc(Cl)cc1,13.4%
23,c1csc(-c2nc(N3CCCCC3)no2)c1,17.1%
